# Measured values published in ChEMBL document CHEMBL2380284, “X-ray crystal structures of the Escherichia coli RNA polymerase in complex with benzoxazinorifamycins” (J Med Chem, 2013).
# Target: DNA-directed RNA polymerase subunit beta (Escherichia coli O127:H6 (strain E2348/69 / EPEC), UniProt B7UPE2, S531L)
row,Structure (SMILES),IC50 [µM]
1,CCN(CC)CCOc1cccc2oc3c4c(=O)c5c(O)c(C)c6c(c5c-3nc12)C(=O)[C@@](C)(O/C=C/[C@H](OC)[C@@H](C)[C@@H](OC(C)=O)[C@H](C)[C@H](O)[C@H](C)[C@@H](O)[C@@H](C)/C=C/C=C(/C)C(=O)N4)O6,64
2,CO[C@H]1/C=C/O[C@@]2(C)Oc3c(C)c(O)c4c(=O)c(c5oc6cccc(OCCCCN7CCN(CCn8ccnc8)CC7)c6nc-5c4c3C2=O)NC(=O)/C(C)=C\C=C\[C@H](C)[C@H](O)[C@@H](C)[C@@H](O)[C@@H](C)[C@H](OC(C)=O)[C@@H]1C,92
3,CO[C@H]1/C=C/O[C@@]2(C)Oc3c(C)c(O)c4c(=O)c(c5oc6cccc(OCCCCN7CCN(C(=O)Cn8ccnc8)CC7)c6nc-5c4c3C2=O)NC(=O)/C(C)=C\C=C\[C@H](C)[C@H](O)[C@@H](C)[C@@H](O)[C@@H](C)[C@H](OC(C)=O)[C@@H]1C,13
4,CO[C@H]1/C=C/O[C@@]2(C)Oc3c(C)c(O)c4c(=O)c(c5oc6cc(N7CCN(CC(C)C)CC7)cc(O)c6nc-5c4c3C2=O)NC(=O)/C(C)=C\C=C\[C@H](C)[C@H](O)[C@@H](C)[C@@H](O)[C@@H](C)[C@H](OC(C)=O)[C@@H]1C [RIFALAZIL],63
5,CO[C@H]1/C=C/O[C@@]2(C)Oc3c(C)c(O)c4c(O)c(c(/C=N/N5CCN(C)CC5)c(O)c4c3C2=O)NC(=O)/C(C)=C\C=C\[C@H](C)[C@H](O)[C@@H](C)[C@@H](O)[C@@H](C)[C@H](OC(C)=O)[C@@H]1C [RIFAMPIN],171
